Target: T1, CTLA-4 (UniProt P16410 36-161, limits assumed)
T1 construct: Cell-free CTLA-4 reagent of the SPR and ELISA studies; also called cytotoxic T-lymphocyte-associated antigen-4
T1 sequence (looked up): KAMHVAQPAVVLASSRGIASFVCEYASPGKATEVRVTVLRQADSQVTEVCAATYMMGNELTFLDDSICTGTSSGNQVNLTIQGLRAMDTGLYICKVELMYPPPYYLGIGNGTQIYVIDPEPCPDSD
Experiment: CTLA-4 binding ELISA

EC50: 0.034 µg/mL
B1: human CD80 ECD:human IgG Fc fusion protein comprising the amino acid sequence of SEQ ID NO:5 (Fc fusion)
chain: VIHVTKEVKEVATLSCGHNVSVEELAQTRIYWQKEKKMVLTMMSGDMNIWPEYKNRTIFDITNNLSIVILALRPSDEGTYECVVLKYEKDAFKREHLAEVTLSVKADFPTPSISDFEIPTSNIRRIICSTSGGFPEPHLSWLENGEELNAINTTVSQDPETELYAVSSKLDFNMTTNHSFMCLIKYGHLRVNQTFNWNTTKQEHFPDN[letters of human IgG1 Fc with changes omitted]
notes: also called hCD80ECD:hIgG1Fc; HCD80ECD:hIgG1Fc

Source: US20210340214A1 (Five Prime, published 2021)
